No constants are given. Whether binding was seen depends on the method and setting. Binding seen in cells or lysates may run through a third protein. Some binding calls cover weakened binding; strength is not graded here. Where a sequence is shown, tags or fusion partners need not be part of it.
Key:
[1] = biological target: White Collar-1 tagged with V5 (WC-1^V5) (Neurospora crassa) (UniProt Q01371); assay: co-IP; WC-1^V5 pulled down with V5 resin from Neurospora lysate (light, 25 °C, 24 h); 137 mM NaCl in lysis and wash buffers; Western blot with WC-1, WC-2, FRQ and FRH antibodies
[2] = biological target: White Collar-1 tagged with V5 (WC-1^V5) (Neurospora crassa) (UniProt Q01371); assay: co-IP; WC-1^V5 pulled down with V5 resin from Neurospora lysate; NaCl in lysis and wash buffers raised to 500 or 1000 mM; Western blot

Protein sequences, listed by entry. Tags and fused reporters are not part of them.
UniProt Q01371: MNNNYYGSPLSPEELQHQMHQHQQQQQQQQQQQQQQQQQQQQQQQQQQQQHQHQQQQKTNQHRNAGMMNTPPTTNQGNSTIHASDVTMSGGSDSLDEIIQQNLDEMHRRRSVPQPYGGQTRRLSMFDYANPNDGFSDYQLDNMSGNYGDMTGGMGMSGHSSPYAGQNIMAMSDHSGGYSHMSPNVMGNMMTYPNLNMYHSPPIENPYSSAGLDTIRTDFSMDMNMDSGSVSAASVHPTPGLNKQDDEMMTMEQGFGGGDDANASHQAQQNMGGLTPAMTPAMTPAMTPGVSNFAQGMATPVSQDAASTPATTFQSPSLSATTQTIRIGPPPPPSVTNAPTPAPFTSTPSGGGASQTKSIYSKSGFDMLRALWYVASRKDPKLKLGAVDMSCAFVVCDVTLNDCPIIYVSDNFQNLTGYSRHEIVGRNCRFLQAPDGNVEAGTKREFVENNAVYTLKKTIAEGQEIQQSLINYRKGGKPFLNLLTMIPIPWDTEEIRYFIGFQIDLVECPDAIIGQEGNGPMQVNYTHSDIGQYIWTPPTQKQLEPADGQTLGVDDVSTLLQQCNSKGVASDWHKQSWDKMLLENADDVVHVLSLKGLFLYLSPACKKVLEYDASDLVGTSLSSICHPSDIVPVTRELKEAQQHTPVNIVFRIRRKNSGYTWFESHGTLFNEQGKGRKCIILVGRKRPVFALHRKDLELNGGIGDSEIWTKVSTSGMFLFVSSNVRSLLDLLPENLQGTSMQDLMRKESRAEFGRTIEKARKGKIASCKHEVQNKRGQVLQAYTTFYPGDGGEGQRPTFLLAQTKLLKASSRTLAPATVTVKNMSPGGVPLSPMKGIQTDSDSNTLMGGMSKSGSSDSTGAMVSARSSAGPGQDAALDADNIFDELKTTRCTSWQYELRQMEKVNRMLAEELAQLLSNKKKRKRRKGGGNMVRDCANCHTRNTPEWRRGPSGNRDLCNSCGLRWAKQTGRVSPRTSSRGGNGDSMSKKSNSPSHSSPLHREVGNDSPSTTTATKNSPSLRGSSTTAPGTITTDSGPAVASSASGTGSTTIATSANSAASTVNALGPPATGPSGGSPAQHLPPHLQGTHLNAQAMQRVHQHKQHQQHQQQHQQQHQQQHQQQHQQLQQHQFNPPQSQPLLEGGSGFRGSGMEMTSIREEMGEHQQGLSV

B1: FREQUENCY (FRQ), untagged, in the WC-1^V5 strain (protein, UniProt P19970 1-989)
chain: MADSGDKSQGMRPPPFDSRGHPLPRRASPDKSITLENHRLARDTSSRVTSSSALGVTESQPQLKSSPTRRNSSGESEPTNWFNQSNRNPAAAFHDESHIMEVDPPFYQKETDSSNEESRYPPGRNPVHPPGGVQLPGFRPVAAHSSAADDYRSVIDDLTVENKRLKEELKRYKQFGSDVMRKEKLFEIKVHGLPRRKKRELEATLRDFAASLGDSSESTSQRRKTGRHGTAVHSSGVSLSKHDSSSSSRSRPVDSAYNSMSTGRSSHAPHSSGPSLGRPSLTRAKSVGTQKVENYLRDTPDGLLPHHIVMTDKEKKKLVVRRLEQLFTGKISGRNMQRNQSMPSMDAPLAPEGTNMAPPRPPPEGLREACIQLQDGDNPRKNRSSKDNGSASNSGGDQTELGGTGTGSGDGSGSGGRTGNNTSPPGAIAPDQRPTRPRDLDPDRVQIPSENMDYIRHLGLVSPEFLQGSRTSYQDVAPDAEGWVYLNLLCNLAQLHMVNVTPSFIRQAVSEKSTKFQLSADGRKIRWRGGTDGTKFSSDSSEDKSQQSPMTEDTEDGSDKNGRRKKRKTQQASSEIGRFGPSRSPSDTFHYKPMFVHRNSSSIETSLEESMSQGSEDAVDESNMGNSKWDFSGSGTTQQRRKRRYDGAIVYYTGAPFCTDLSGDPGDMSPTAQMTAGREVEGSGSGDEVEHVLQRTLSGSSLPIRPLSDDRARVAEVLDFDPGNPPELVADDGSSPNDEDFVFPWCEDPAKVRIQPIAKEVMEPSGLGGVLPDDHFVMLVTTRRVVRPILQRQLSRSTTSEDTAEFIAERLAAIRTSSPLPPRSHRLTVAPLQVEYVSGQFRRLNPAPLPPPAIFYPPFSTDSSWDDGDDLASDDEEVEEVEEDSYSEGQISRRANPHFSDNNTYMRKDDLAFDTETDVRMDSDDNRLSDSGHNMRAMMPRAEAVDGDDSPLAAVTGKEVDMLHTGSSVATAGGAESGYSSSMEDVSSS
binding [1]: binds
binding [2]: no binding (condition: with 500 mM or 1000 mM NaCl)
